Measurements from ChEMBL document CHEMBL4888484, “Replenishing the malaria drug discovery pipeline: Screening and hit evaluation of the MMV Hit Generation Library 1 (HGL1) against asexual blood stage Plasmodium falciparum ,using a nano luciferase reporter read-out” (2022).
The campaign covered roughly 150,000 compounds. About 540 (0.36%) showed an effect of 50% or more. Some of the results follow.

system: Plasmodium falciparum; experiment: Primary screen in NF54 nanoGlo assay, in single point, at 2uM, 72h; a lower Z score goes with more inhibition; format: functional, Erythrocyte; conditions: timepoint 72 hour

Row | SMILES | % Inhibition [%] | Z score
1 | Cn1nccc1NC(=O)N1CC2(CCCCC2)[C@H]1c1ccccc1 | -4 | 0.38
2 | COc1cccc(CNC[C@@]2(COc3cccnc3)C[C@@H](O)[C@@H](O)C2)c1 | -11 | 1.73
3 | O=C([C@@H]1C[C@@H](F)CN1C(=O)c1cncc(N2CCOCC2)c1)N1CCOCC1 | 13 | -1.29
4 | CCn1c(-c2cc(NC(=O)c3ccc(C)c(F)c3)[nH]n2)cc2c(OC)cccc21 | 14 | -1.64
5 | Cc1ccc(C)c(Cn2cc(S(=O)(=O)N3CCCCC3)ccc2=O)c1 | -4 | 0.86
6 | O=C(CCCn1ccnc1)N[C@H]1CC[C@@H]2CCC[C@@H]21 | 6 | -0.82
7 | Cc1cc(CS(=O)(=O)Nc2c(C)cccc2F)no1 | -12 | 1.56
8 | Cc1ccc(C)c(S(=O)(=O)Nc2nc3ccccc3nc2Nc2ccc3c(c2)OCO3)c1 | -2 | 0.43
9 | N#C[C@@H](c1ccc(Cl)c(Cl)c1)c1cnccn1 | 11 | -1.65
10 | Cc1nc(C2CC2)oc1C(=O)N1CCCCC2CCCCC21 (stereo unspecified) | -7 | 0.7
11 | CN(Cc1cnc(NCc2ccccc2)nc1)[C@H]1COC[C@@H]1O | 3 | -0.44
12 | CC(C)(C)n1cc(C#N)c(NS(=O)(=O)c2c[nH]c3ccccc23)n1 | -14 | 1.9
13 | CN(Cc1csc(-c2ccccc2)n1)Cc1nc(CC2CC2)no1 | -7 | 1.36
14 | CCOC(=O)c1[nH]c(=O)[nH]c1[C@H]1C[C@@H](NC(C)=O)C[C@@H](c2ccccc2)O1 | 5 | -0.6
15 | Cc1nc(C(=O)O[C@@H](C)C(=O)Nc2ccccc2)c2n1CCCC2 | -2 | 0.28
16 | O=C(Cn1c(=O)n(-c2ccccc2)c(=O)n1CC(=O)N1CCCCC1)N1CCCCC1 | -2 | 0.27
17 | Nc1ccnc(-c2ccccc2CN2CCOCC2)c1 | 2 | -0.34
18 | Cc1cc(S(=O)(=O)NC[C@H]2CCCCN2)c(C)o1 | 4 | -0.6
19 | Cc1ccc(C(=O)C(=O)NCc2ccc(N(C)C)c(F)c2)cc1 | -7 | 1.4
20 | Cc1c(CN(C)Cc2cnn3cccnc23)cnn1C | 2 | -0.27
21 | CCOC(=O)[C@H]1CCCN(CCC(=O)NC(=O)NC2CCCC2)C1 | -3 | 0.3
22 | Cc1ccc(-n2nnnc2C(C)(C)Nc2ccc3c(c2)OCCO3)cc1 | -8 | 1.09
23 | NC(=O)CN(Cc1ccccc1)S(=O)(=O)CC1CCCC1 | -2 | 0.44
